In all, about 45,000 compounds went through this assay and about 200 (0.44%) were called active. Not shown: some 7% with an inconclusive outcome. The call rests on the fitted dose curve; in most records, active means well fitted activation curve with a large enough effect; inconclusive means small, poorly fitted or top-dose-only effect; inactive means no such curve, though single readings can be large or run the other way. The list shows a part of the results.
Test: qHTS of TDP-43 Inhibitors: NCGC Sytravon Library Screen; further: 0% is about no effect; nearly all actives have a fitted effect of over 55% in size
Conditions: yeast TDP-43 toxicity rescue, BacTiter-Glo growth, 24 h; series mostly up to 46.1 µM; growth rescue (activation): at the top concentration
Summary of the method: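 TDP-43-expressing yeast, pregrown in raffinose, seeded at OD600 0.02 in galactose medium with compound for 24 hr at 30 deg C. Growth read by BacTiter-Glo luminescence, so rescue of toxicity appears as activation.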

SMILES	growth rescue (activation)
CC(C)Cn1cnc2c1c(=O)n(CC(=O)NN)c(=O)n2Cc1ccccc1	inactive: -18.3%
CCCc1cc(=O)[nH]c(SCC(=O)Nc2cc(C)on2)n1	inactive: 13.6%
CS(=O)(=O)Nc1ccc2[nH]c(=O)[nH]c2c1	inactive: 1.01%
CCc1ccccc1NC(=O)Nc1ccc(F)cc1	inactive: 8.83%
COc1ccc(-c2nn(-c3ccccc3)cc2/C=N/NC(=O)c2cccc(S(=O)(=O)Nc3ccccc3Cl)c2)cc1	inactive: 20%
COc1cc(C(=O)Oc2ccccc2/C=N/NC(=O)c2ccc(Cl)cc2)cc(OC)c1OC	inactive: -6.81%
COc1ccc(CNC(=O)COC(=O)c2ccc(S(=O)(=O)N3CCOCC3)cc2)cc1	inactive: -7.22%
COc1ccc(Cn2ccnc2CO)cc1[N+](=O)[O-]	inactive: -2.11%
COc1ccccc1C(=O)NNC(=O)CCCN1C(=O)/C(=C/c2cccs2)SC1=S	inactive: 19%
CC(=O)NNS(=O)(=O)c1ccccc1[N+](=O)[O-]	inactive: -11%
CC(=O)CCC(=O)N1CCC(n2nccc2NC(=O)c2ccccc2C)CC1	inactive: -14.5%
COc1ccc(-n2c(C)cc(/C=C3/SC(=S)N(C)C3=O)c2C)cc1	inactive: 15.8%
Cc1cc(C)c2c(c1)C(=O)/C(=C/c1ccc(C(=O)O)cc1)CC2	inactive: 4.8%
COc1cc(/C=C/C(=O)OCC(=O)N2CCCc3ccccc32)ccc1O	inactive: 13.4%
CC(C)CNC(=O)C1(C)CCCN1C(=O)c1ccc2c(c1)CCO2 (stereo not drawn)	inactive: -3.94%
COc1cc(NC(=O)CSc2nc3cc(C)ccc3cc2C)c(C(=O)O)cc1OC	inactive: 12%
O=C(c1ccc2c(c1)OCO2)N1CCc2ccccc21	inactive: 8.05%
COCCCNC(=O)c1ccc([N+](=O)[O-])cc1	inactive: 4.7%
C=CCc1ccc(OCc2ccc(C(=O)O)o2)c(OC)c1	inactive: 1.65%
CC(C)N1CCCC(CNC(=O)CCc2nnc(CCCCc3ccccc3)o2)C1 (stereo not drawn)	inactive: 2.1%
O=C(CNS(=O)(=O)c1c(F)cccc1F)NC1CCCc2ccccc21 (stereo not drawn)	inactive: -2.27%
Cc1ccc2c(c1)sc1nc(=O)n(-c3ccccc3)c(=O)n12	inactive: -13.6%
CC(C)(C)c1ccc(C(=O)Nc2ccc(C=C(C#N)C#N)cc2)cc1	inactive: 25.2%

SMILES	growth rescue (activation)
Cc1ccc(OCc2cc(C(=O)N3CCN(C)C[C@@H]3c3ccccc3)no2)cc1C	inactive: 3.36%
COc1ccc(OC)c(/C=C(/C#N)c2nc(-c3ccc(-c4ccccc4)cc3)cs2)c1	inactive: 13%
CC[C@@H](C)[C@H](NS(=O)(=O)c1ccc(C)cc1)C(=O)N1CCC(C(=O)NCC(=O)O)CC1	inactive: 2.87%
Cc1sc(NC(=O)c2ccco2)c(C(Nc2ccccn2)c2ccccc2)c1C (stereo not drawn)	inactive: 4.62%
O=C(Nc1ccc(C(=O)O)cc1)/C(=C/c1cccc(Br)c1)NC(=O)c1ccco1	inactive: 4.2%
CC(NS(=O)(=O)c1ccc(NC(=O)N2CCCCC2)cc1)c1ccccc1 (stereo not drawn)	inactive: 21%
CCCc1nnc(NC(=O)CCC(=O)NCc2ccc(OC)cc2)s1	inactive: 9.9%
COc1ccc(CNC(=O)C(C)Sc2ccc(S(=O)(=O)N3CCOCC3)cn2)cc1 (stereo not drawn)	inactive: -1.03%
Cc1ccc(/C=N/NC(=O)Cc2cccn2C)s1	inactive: 6.93%
Cc1cc(CNC(=O)CC2C(=O)NCCN2Cc2ccccc2C(F)(F)F)on1 (stereo not drawn)	inactive: 11.2%
N#C/C(=C\C1=C(N2CCOCC2)C(=C\c2ccc(Cl)cc2)/CC1)C(=O)Nc1ccccc1F	inactive: -0.191%
Cc1ccccc1-c1csc(C(C)(O)c2ccc(F)c(F)c2)n1 (stereo not drawn)	inactive: 1.86%
Cc1ccc(S(=O)(=O)NCC(=O)OCC(=O)N2C(C)CCCC2C)cc1 (stereo not drawn)	inactive: -7.18%
CC(=O)OCC(=O)Nc1ccccc1OC(F)F	inactive: 1.98%
O=C(Cc1ccccc1[N+](=O)[O-])N1CCN(c2ccc(F)cc2)CC1	inactive: 33.8%
Cc1ccc(S(=O)(=O)N2CCCCC2)cc1C(=O)OC(C)C(=O)NCC1CCCCC1 (stereo not drawn)	inactive: 34.3%
O=C(CCC(=O)c1ccc(F)cc1)Nc1cccc(S(=O)(=O)Nc2cccc(Cl)c2)c1	inactive: 10.9%
C=CCNC(=S)NNC(=O)COc1c(Cl)cc(Cl)cc1Cl	inactive: 18.3%
COC(=O)[C@H](C)NC(=O)NCc1ccc(S(N)(=O)=O)cc1	inactive: 5.39%
S=C(CN1CCCC1=S)NCCc1ccccc1	inactive: 15.6%
Cc1c(NC(=O)Nc2ccc([N+](=O)[O-])cc2)c(=O)n(-c2ccccc2)n1C	inactive: -1.15%
Cc1ccc(Nc2cc(C(=O)NCCCN3CCOCC3)c3ccccc3n2)c(C)c1	inactive: -10.6%
COc1cccc(S(=O)(=O)N2CCN(Cc3ccc4c(c3)OCO4)CC2)c1	inactive: 23.7%

SMILES	growth rescue (activation)
CCCCC(=O)NC(=S)NNS(=O)(=O)c1ccccc1	inactive: -1.61%
COc1cc(NC(=O)COC(=O)C=C(C)C)c(C)cc1[N+](=O)[O-]	inactive: 34.4%
Nc1nc(CSc2ccccc2)nc(N2CCCCC2)n1	inactive: -1.01%
Cc1ccc(NC2CCCN(C(=O)CCC3=NNC(=O)CC3)C2)cc1C (stereo not drawn)	inactive: -9.36%
CCN1C(C(=O)c2ccccc2)=C(Nc2ccccc2C)c2ccccc2S1(=O)=O	inactive: -6.85%
O=C(NOC(=O)c1ccccc1F)c1ccc(OC(F)F)cc1	inactive: -0.886%
COC(=O)c1ccc(C(=O)OC)c(NC(=S)N2CCN(c3ccccn3)CC2)c1	inactive: 0.535%
O=C(Nc1ccccc1Cl)NC1(C(=O)N2CCOCC2)CCCCC1	inactive: -5.02%
CCc1c(C)nc(N)nc1Cl	inactive: 0.0372%
Cc1nc2ccc(NS(=O)(=O)c3ccc4c(c3)OCCO4)cc2s1	inactive: 17.9%
O=C(OCC#CCSc1nnc(-c2ccncc2)o1)c1sc2ccccc2c1Cl	inactive: 23.5%
Cn1c(CCC(=O)OCC(=O)NCc2ccccc2Cl)nc(=O)c2ccccc21	inactive: 14.5%
CCCNc1nc2c(c(=O)[nH]c(=O)n2C)n1CCOc1ccccc1	inactive: 7.43%
Cc1cccc(NC(=O)Cn2c(=O)n(CC3CCCO3)c(=O)c3ccccc32)c1 (stereo not drawn)	inactive: 0.978%
Cc1cc(C(=O)N/N=C/c2cccnc2)n[nH]1	inactive: 3.92%
O=C(CCc1c[nH]c2ccccc12)N=Nc1c(O)[nH]c2ccccc12	inactive: 5.78%
O=C(CNC(=O)c1ccccc1F)NCc1ccncc1	inactive: 5.77%
CCN(CC)c1ccc(C(=O)NNC(=O)CCl)cc1	inactive: 13.5%
COC1=CC(=Cc2c(N)n3nc(CC(=O)N4CCOCC4)sc3nc2=O)C=C(OC)C1=O	inactive: -4.22%
CC1CCN(S(=O)(=O)c2cccc(S(=O)(=O)N3CCCC3)c2)CC1	inactive: 9.12%
CCN(CC)S(=O)(=O)c1cccc(NC(=O)CN(C)Cc2cccc(OC)c2)c1	inactive: 1.64%
Cc1c(NS(=O)(=O)c2cccc3nsnc23)c(=O)n(-c2ccccc2)n1C	inactive: 0.509%

Source: PubChem BioAssay AID1347073 (National Center for Advancing Translational Sciences (NCATS), 2019)
